Data published in PubChem BioAssay AID488895 (Broad Institute, 2010).
Where “and” joins values, the source holds several entries; their conditions need not be identical. Equal entries are not always repeated. Hit rate of the full screen: of about 340,000 compounds, about 120 (0.035%) were called active. Inconclusive means that the source gave no clear call. Such entries were picked first, then a sample of the others.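 The calls were made as follows: active = mean replicate inhibition at least 50% and at least half of replicates individually reaching 50%; inconclusive = only one of the two criteria met; inactive = neither criterion met.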

Assay: E. coli Tat export inhibitors, primary screen, MC4100, TorA-mCherry reporter, fluorescence, single point (AID 488895);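 also: exported cargo escapes ClpAP degradation while cytoplasmic cargo is degraded and loses fluorescence; 0% = median of neutral control wells and 100% = median of NaSCN control wells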
Conditions: at 10 µM, stronger effect = higher value
In the case of `Oc1ccc(CN2CCN(Cc3ccccc3)CC2)c2cccnc12`, the inhibition is reported as inactive: 7.1%. For `C(=C\c1nc2ccccc2[nH]1)/c1ccccc1`, the inhibition was inactive: 3.99%. In the case of `Clc1ccc2c(c1)c1ccccc1n2CN1CCOCC1`, the inhibition is reported as inactive: 4.45%. With `O=C(N/N=C/C1=C(N2CCOCC2)C(=C\c2ccccc2)/CC1)Nc1ccccc1` the inhibition was inconclusive: 32.6%. For `O=S(=O)(O)c1cccc(N=Nc2c(O)ccc3ccccc23)c1`, the inhibition was inconclusive: 26.9%. With `COc1cccc(N=Nc2ccc(O)c3ncccc23)c1` the inhibition was inactive: -14.2%. For `O=C(Nc1nc2c(s1)CCCC2)c1cccc(S(=O)(=O)N2CCCc3ccccc32)c1`, the inhibition was inconclusive: 27.5%. In the case of `O=C(CN1C(=O)c2cccc3cccc1c23)Nc1ccc(S(=O)(=O)N2CCOCC2)cc1`, the inhibition is reported as inactive: 1.77%. For `Clc1cc2cccnc2c2ncccc12`, the inhibition was inactive: -6.34%. For `COc1cc(C(=O)Oc2cc(C)cc(C)c2)cc(OC)c1OC`, the inhibition was inconclusive: 36.8%. With `CCN(C[C@H]1N[C@@](Cc2ccccc2)(C(=O)OC)[C@H]2C(=O)N(C)C(=O)[C@@H]12)C(C)=O` the inhibition was inconclusive: 39.5%. In the case of `COc1ccc(-c2cc(C(F)(F)F)c3c(n2)sc2c(O)cc(=O)[nH]c23)c(OC)c1`, the inhibition is reported as inconclusive: 38.1%. For `Cc1cccc(-n2c(SCC(=O)NC3CCCC3)nnc2-c2ccoc2C)c1`, the inhibition was inconclusive: 28.4%. With `COc1ccc(NC(=O)c2cccc(Cn3cc(Br)c([N+](=O)[O-])n3)c2)c(C)c1` the inhibition was inactive: -17.6%. For `N#Cc1ccccc1S(=O)(=O)N1CCN(CC(=O)Nc2ccnn2C2CCCC2)CC1`, the inhibition was inconclusive: 29.1%. With `COc1cc(SC)ccc1C(=O)Nc1cc(C)ccn1` the inhibition was inconclusive: 30.6%. For `COCCn1c(=NC(=O)c2ccc3c(c2)OCCO3)sc2cc(S(N)(=O)=O)ccc21`, the inhibition was inconclusive: 33.2%. In the case of `CN1CCN(c2cc3c(cc2F)c(=O)c(C(=O)O)cn3CCF)CC1`, the inhibition is reported as active: 81.7%. With `CC(Nc1c([N+](=O)[O-])c(=O)oc2ccccc12)C(Cl)c1ccccc1` (stereo not drawn) the inhibition was inactive: -6.09%. For `Cc1ccc(Nc2c(-c3ccccn3)nc3cc(C)ccn23)cc1`, the inhibition was inactive: 4.63%. In the case of `C[n+]1c(-c2ccc(C=NNC(=O)c3ccc(C(=O)NN=Cc4ccc(-c5cn6ccccc6[n+]5C)cc4)cc3)cc2)cn2ccccc21`, the inhibition is reported as active: 50.4%. In the case of `CCCC(=O)NC(Nc1ccc(S(=O)(=O)Nc2cc(C)on2)cc1)(C(F)(F)F)C(F)(F)F`, the inhibition is reported as inactive: -2.88%. With `O=C(Nc1cccnc1)Nc1cc(Cl)cc(Cl)c1` the inhibition was inactive: -11.1%. For `Cc1nc(N2CCN(S(=O)(=O)c3ccc(Br)cc3)CC2)c2c(C)c(C)sc2n1`, the inhibition was inconclusive: 31.9%. For `CC(C)[C@H](NC(=O)N1CCn2c1nc1ccccc12)C(=O)NC1CC1`, the inhibition was inactive: 3.55%. With `O=C(CCSc1ccccc1)N1CCN(C(=O)c2ccco2)CC1` the inhibition was inconclusive: 40%. For `CCCCOCC1CN(c2ccccc2)C(=O)CS1` (stereo not drawn), the inhibition was inconclusive: 36.7%. In the case of `COc1ccc(C(NC(C)=O)c2cc(Cl)c3cccnc3c2O)cc1OC` (stereo not drawn), the inhibition is reported as inactive: -1.87%. With `COc1cccc(C(=O)Nc2cc([N+](=O)[O-])ccc2N2CCN(C)CC2)c1` the inhibition was inconclusive: 39.5%. In the case of `Nc1ccccc1SCc1cn2ccccc2n1`, the inhibition is reported as active: 74.9%. For `COc1ccc(OC)c(C(=O)CSc2nnc(-c3cccs3)o2)c1`, the inhibition was inconclusive: 29.8%. With `CCOC(=O)CSc1nnc(CNC(=O)c2ccc([N+](=O)[O-])cc2)n1C` the inhibition was inconclusive: 35.6%. In the case of `O=C(COC(=O)/C=C/c1ccccc1)NCCC1=CCCCC1`, the inhibition is reported as inactive: 1.57%. With `CCC(CC)C1C(C#N)=C(N)Oc2cc(C)oc(=O)c21` (stereo not drawn) the inhibition was inactive: -2.33%. For `CCC[C@@H]1C[C@@H](C(=O)N[C@H]([C@@H](C)O)[C@H]2O[C@H](SC)[C@H](O)[C@@H](O)C2O)N(C)C1` (stereo partly drawn), the inhibition was inconclusive: 43.2%. With `CNC(=O)CN(c1ccc(C(C)C)cc1)S(C)(=O)=O` the inhibition was inconclusive: 28.9%. In the case of `COC(=O)C1(S(=O)(=O)C2(C(=O)OC)CCCC2)CCCC1`, the inhibition is reported as inconclusive: 32.6%. In the case of `Cc1ccc(N2CC(C(=O)Nc3cc(C(F)(F)F)ccc3N3CCCC3)CC2=O)cc1` (stereo not drawn), the inhibition is reported as inconclusive: 26.6%. In the case of `Cc1nc2ncnn2c(C)c1CCC(=O)N1CCCCC1`, the inhibition is reported as inconclusive: 20.7%. For `O=S(=O)(Nc1cccc(-c2cn3c(n2)SCC3)c1)c1ccc(F)cc1F`, the inhibition was inconclusive: 24.8%. For `C(=N\Nc1ccccn1)/c1ccc(N2CCOCC2)cc1`, the inhibition was inconclusive: 26.4%. In the case of `CCOC(=O)Oc1ccc2c(=O)c(Oc3cccc(C)c3)coc2c1`, the inhibition is reported as inactive: -14.4%. For `NS(=O)(=O)c1ccc(CCNc2nc(C(F)(F)F)nc3ccccc23)cc1`, the inhibition was inconclusive: 36%. In the case of `CNc1ncnc(Sc2nc(N)nc3nc[nH]c23)c1[N+](=O)[O-]`, the inhibition is reported as inactive: -0.717%. In the case of `CC(=O)OC1CCC2(C)C3=CCC4(C)C(C(C)=O)=CCC4C3CCC2C1` (stereo not drawn), the inhibition is reported as inconclusive: 32.2%. With `Cc1ccc(C2CC2/C(=N/O)c2ccc(F)cc2)cc1` (stereo not drawn) the inhibition was inconclusive: 35.2%. With `COc1ccccc1N1CCN(c2nc3ccccn3c(=O)c2C=O)CC1` the inhibition was inconclusive: 36.1%. With `O=C(C1CCCN(S(=O)(=O)c2cccnc2)C1)N1CCn2c1nc1ccccc12` (stereo not drawn) the inhibition was inconclusive: 43.1%. In the case of `CC1CCCCC1NC(=O)C1CCN(S(=O)(=O)c2ccc(-n3cnnn3)cc2)CC1` (stereo not drawn), the inhibition is reported as inactive: 6.16%. With `CC(C)CN(C(=O)COC(=O)CNC(=O)c1ccccc1F)C1CCS(=O)(=O)C1` (stereo not drawn) the inhibition was inactive: -5.54%. In the case of `Cc1cc(=O)oc2cc(O)cc(O)c12`, the inhibition is reported as inconclusive: 23.3%. For `CC1(C)C2CCC1(C)C(NC(=O)/C=C/c1ccccc1)C2` (stereo not drawn), the inhibition was inconclusive: 29%. For `Cc1cc(/C=N/n2c(COc3ccccc3C)nc3ccccc3c2=O)c(O)c([N+](=O)[O-])c1`, the inhibition was inactive: -6.7%. With `COc1ccc(/C=C/C(=O)OCc2cc(=O)n3c(n2)sc2ccccc23)cc1` the inhibition was inconclusive: 34.1%. For `O=C(CSc1nnc(-c2cccnc2)o1)Nc1ccc(Cl)cc1`, the inhibition was inconclusive: 26.3%. In the case of `O=C1/C(=C/c2ccccc2O)SC(=S)N1Cc1cccnc1`, the inhibition is reported as inconclusive: 25.3%. With `CCNc1c(NS(=O)(=O)c2ccc(OC)cc2)c(=O)oc2ccccc12` the inhibition was inconclusive: 22.8%. With `Oc1cc(-c2ccncc2)cc2cccnc12` the inhibition was inactive: -1.45%. With `Cc1ccc(N=Nc2ccc(O)cc2)c(Br)c1` the inhibition was inactive: -14.5%. For `CCN(CC)S(=O)(=O)c1cccc(NC(=O)CC2CCCC2)c1`, the inhibition was inactive: 24.7%. With `CCC1Oc2nc(SC)nnc2-c2ccccc2N1C(=O)c1ccccc1` (stereo not drawn) the inhibition was inconclusive: 37.7%. For `Fc1ccc(-n2c(-c3ccc4ccccc4n3)n[nH]c2=S)cc1Cl`, the inhibition was inconclusive: 34.6%. For `Cc1cc2cc(CNC(=O)c3ccc(C)c([N+](=O)[O-])c3)ccc2[nH]1`, the inhibition was inactive: 4.47%. With `Clc1ccccc1CSc1nnc(-c2cccnc2)n1Cc1ccco1` the inhibition was inconclusive: 39.9%. For `COc1ccc(CNC(=O)COC(=O)/C=C/c2cccs2)cc1`, the inhibition was inconclusive: 26.6%. With `CC(=O)Nc1cccc(NC(=O)CSc2ccc(-c3ccccn3)nn2)c1` the inhibition was inactive: -4.94%. In the case of `O=C1NC(=S)S/C1=C\C=C\c1ccc([N+](=O)[O-])o1`, the inhibition is reported as active: 67.6%. With `CCCn1c(N)c(C(=O)CSc2nnnn2-c2ccc(O)cc2)c(=O)n(C)c1=O` the inhibition was inconclusive: 24.7%. In the case of `O=C(Nc1ccsc1C(=O)NC1CCCCC1)c1ccccc1`, the inhibition is reported as inconclusive: 24.7%. With `N=C(N)c1ccc(/C=C/c2ccc(C(=N)N)cc2O)cc1` the inhibition was active: 75.9%. In the case of `CCN(CC)c1ccc(C(=C2C=CC(=[N+](CC)CC)C=C2)c2ccccc2)cc1`, the inhibition is reported as active: 63.6%. With `O=C1OCCN1C(=O)[C@H]1[C@H](c2ccc(Cl)cc2)C(c2ccccc2)=NN1c1ccccc1` the inhibition was inconclusive: 39%. For `CCNC(=O)c1ccc(NS(=O)(=O)c2ccccc2)cc1`, the inhibition was inconclusive: 35.5%. In the case of `CC(C)OC(=O)c1nn2c(C(F)(F)F)cc(-c3ccco3)nc2c1Cl`, the inhibition is reported as inconclusive: 34.8%. For `COc1cc(OC)cc(C(=O)N(CN2CCCC2=O)c2ccccc2OC)c1`, the inhibition was inconclusive: 26.9%. For `Nc1ccc(C(=O)Nc2nc3ccccc3s2)cc1`, the inhibition was inconclusive: 31.2%. With `COc1cccc(-c2nn(-c3ccccc3)cc2CN(C)C(C)c2ccncn2)c1` (stereo not drawn) the inhibition was inconclusive: 34.9%. For `CCCCS(=O)(=O)N1CCCC(C(=O)Oc2ccc(Cl)cc2)C1` (stereo not drawn), the inhibition was inconclusive: 23.6%. For `COc1ccc(-c2nc(C#N)c(NCC3CCCO3)o2)cc1OC` (stereo not drawn), the inhibition was inconclusive: 37.9%. In the case of `Cc1ccc(Nc2nc(NCc3ccco3)c3ccccc3n2)cc1`, the inhibition is reported as inactive: -64%. For `CN1CCN(C(=S)c2cn(Cc3ccc(Br)cc3)c3ccccc23)CC1`, the inhibition was inconclusive: 28.9%. With `Cc1nc2nc(C)n(CCN3CCOCC3)c(=O)c2c(-c2cccc([N+](=O)[O-])c2)c1C(=O)CCCCCCCCCCN1CCC(c2ccccc2)(c2ccccc2)CC1` the inhibition was inconclusive: 44.6%. For `COc1cc(NC(=O)C2CC(=O)NC3=C2C(=O)CC(C)(C)C3)c(OC)cc1Cl` (stereo not drawn), the inhibition was inconclusive: 31.8%. With `CCOC(=O)C(NC(C)=O)(Nc1ccc(F)cc1)C(F)(F)F` (stereo not drawn) the inhibition was inconclusive: 19.8%. For `CC1CCN(C(=O)C2(NC(=O)Nc3cccc(F)c3)CCCCC2)CC1`, the inhibition was inconclusive: 23.4%. In the case of `Cc1cnc(C(=O)OCC(=O)c2ccc(-c3ccccc3)cc2)cn1`, the inhibition is reported as inconclusive: 44.6%. For `COc1ccc(NC(=O)Cn2ncc(Cl)c(Cl)c2=O)cc1S(=O)(=O)N1CCOCC1`, the inhibition was inconclusive: 20.2%. For `COc1ccccc1C(=O)NC(=Nc1nc2ccccc2o1)NC(=O)c1ccccc1OC`, the inhibition was inactive: -3.25% and inactive: -7.31%.
